Test results: the supplement of paper PMC3334620
Whole data set: some 33,000 sequences, median “E-score (-0.5 to 0.5)” near -0.012, cut for the highest 2% near 0.27. The list shows a part of the results.

target: T1, Vhr1 (UniProt P40522); test: PBM E-score (8-mer binding enrichment) (E-score (-0.5 to 0.5)); higher = stronger / more preferred TF binding; most listed sequences are background and not binding sites; conditions: protein concentration: 200 nM; construct: GST-full length
T1 sequence: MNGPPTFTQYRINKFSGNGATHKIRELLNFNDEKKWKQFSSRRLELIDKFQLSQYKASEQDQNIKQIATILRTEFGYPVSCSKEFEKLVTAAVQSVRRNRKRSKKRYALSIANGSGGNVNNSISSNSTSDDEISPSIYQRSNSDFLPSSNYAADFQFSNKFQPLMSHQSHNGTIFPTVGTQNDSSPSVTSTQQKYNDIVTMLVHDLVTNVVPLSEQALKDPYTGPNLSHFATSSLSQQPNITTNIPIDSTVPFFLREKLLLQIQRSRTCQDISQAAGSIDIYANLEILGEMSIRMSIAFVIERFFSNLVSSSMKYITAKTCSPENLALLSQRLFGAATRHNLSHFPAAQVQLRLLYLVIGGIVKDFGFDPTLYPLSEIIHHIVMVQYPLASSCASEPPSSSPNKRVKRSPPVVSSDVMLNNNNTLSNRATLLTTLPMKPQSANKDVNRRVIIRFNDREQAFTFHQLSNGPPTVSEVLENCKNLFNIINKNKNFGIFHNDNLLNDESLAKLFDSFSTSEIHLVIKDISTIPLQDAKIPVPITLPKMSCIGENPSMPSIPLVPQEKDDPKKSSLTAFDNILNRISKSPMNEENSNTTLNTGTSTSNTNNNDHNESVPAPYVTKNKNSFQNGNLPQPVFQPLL
Summary of the method: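 GST-tagged yeast TFs (full-length or DNA-binding domain) were made by PURExpress in vitro transcription/translation and applied at about 100-200 nM to universal all-10-mer Agilent arrays. The arrays were made double-stranded by primer extension, on fresh or once-stripped slides. Bound protein was detected with fluorescent anti-GST, and scans were normalised with masliner. Each ungapped eight-base word, pooled with its reverse complement, received an E-score (modified Wilcoxon-Mann-Whitney statistic) from the Universal PBM Analysis Suite.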

Row | Sequence | PBM E-score
1 | AATAGACC | -0.0852
2 | GATGTCAC | 0.157
3 | ACCGTAAT | -0.133
4 | ATGAGAAC | -0.00399
5 | ATCATGAC | 0.335
6 | ACTATCAA | 0.112
7 | CCAGCCGA | 0.0506
8 | CGGAACTC | 0.0444
9 | CCCTTGAC | -0.152
10 | CAACTATG | 0.0994
11 | CAGGACTA | -0.0228
12 | CGATTTCA | 0.0412
13 | CTCGTTTA | -0.0274
14 | CGTTTCCA | -0.0207
15 | AAGATCTT | -0.242
16 | CTTTTTAA | -0.256
17 | CGGCGTCA | -0.108
18 | CTCTGCAG | -0.0116
19 | AGGCCTTA | -0.211
20 | TATTATCA | 0.0625
21 | CAATGACG | -0.0381
22 | ATGTAAGC | -0.0258
23 | CCTAAAGA | -0.24
24 | GTAATCGA | -0.00778
25 | AGTGGCTA | 0.0701

Row | Sequence | PBM E-score
26 | ACGAACAC | 0.0844
27 | TGGAAACA | 0.0346
28 | GAGATTCA | 0.0192
29 | AAATCCTG | 0.0104
30 | CACCGTAC | 0.105
31 | CATGCTTA | 0.145
32 | TCTAATCA | 0.23
33 | GGATTTTA | -0.214
34 | CTACGTAG | -0.0255
35 | AAGCGTCT | -0.251
36 | ACGGTGAG | 0.234
37 | CATCCTGA | 0.242
38 | CCATGGTA | 0.225
39 | GAGATCGC | -0.0882
40 | ACACGTTG | -0.0652
41 | AGAAACGA | 0.00093
42 | ATGCCCCG | -0.00357
43 | ACATCCCC | 0.226
44 | CCCCCAAA | -0.302
45 | TACCGCAA | 0.105
46 | CCTCTGAG | 0.147
47 | CTCCGTAA | -0.19
48 | CGCGACAG | -0.0867
49 | CGCACAGA | -0.215
50 | CCCATCTC | -0.00162

Row | Sequence | PBM E-score
51 | AAGCGGAG | -0.0344
52 | GTAGGAGA | -0.148
53 | AAAGACAG | -0.00384
54 | CCCAGTAG | 0.0709
55 | GGCATAAA | -0.105
56 | ACAGTGAA | 0.0157
57 | GACCTGAC | 0.161
58 | AGAGGGCG | -0.0697
59 | GAGGCCCA | -0.161
60 | AGCCCCTA | -0.104
61 | AATGTACC | -0.0492
62 | TGAACTAA | -0.134
63 | CTCGAGAG | -0.0272
64 | GGATAACC | -0.112
65 | AAGTTATC | -0.0682
66 | CCTACTCA | 0.0944
67 | CGTTTCCC | 0.0407
68 | ACTCCGAG | 0.357
69 | GCATCTAC | 0.0888
70 | CTGCTCTC | -0.138
71 | GACGACCC | 0.0907
72 | CGCCGTAC | 0.0322
73 | ACAAAACC | 0.097
74 | GACAGATC | -0.0659
75 | AACTCCCT | -0.175

Row | Sequence | PBM E-score
76 | CATTTATC | -0.0956
77 | ACCTCGGG | -0.0373
78 | GAGGGTAA | -0.0586
79 | ACTCAATG | 0.159
80 | ACGATTCT | 0.0967
81 | GTTTTATA | -0.0144
82 | ACGTGTCA | 0.0924
83 | GCGGTGAC | 0.103
84 | TAAGGCCA | -0.213
85 | CTACGCGC | 0.0705
86 | GCGATTGA | -0.121
87 | ACAGTTCT | 0.0293
88 | CGAGCAAG | -0.0458
89 | TCTGCGAA | -0.226
90 | GCGGGGCA | -0.0284
91 | CAGCTTTC | -0.0274
92 | AACAGAAG | -0.178
93 | ACTCAGTA | 0.281
94 | GACTCAGC | 0.404
95 | CCACAAGC | -0.0942
96 | CAACGCCG | 0.00171
97 | CCGTGTAA | -0.067
98 | CTACTCAA | 0.113
99 | AAGGCACC | -0.0491
100 | ATATAGGA | 0.124

Row | Sequence | PBM E-score
101 | GGTCGCAA | 0.0154
102 | ATCACTTG | -0.0397
103 | GCGGGGGA | -0.0987
104 | CCATCACC | 0.177
105 | ATGTGATC | 0.132
106 | CGTATAAA | 0.0599
107 | GCCTATCA | -0.112
108 | ACTGTAGA | 0.0811
109 | CGGGGTAC | -0.239
110 | CAGGTCGC | -0.143
111 | TCAAATAA | -0.155
112 | ATTTCTCA | -0.233
113 | ATGGGTTC | 0.146
114 | AGGGTATA | 0.158
115 | GACCCAAC | 0.0715
116 | CCAAGGCA | -0.0106
117 | ACCGTGTC | 0.0801
118 | ACACTTCC | -0.224
119 | AATGTCGC | -0.00104
120 | GGGTCGAC | 0.114
121 | CTCCGGCA | 0.152
122 | CAGCGTAC | -0.0274
123 | CTCCTTTC | 0.0578
124 | AAGCTTTA | -0.237
125 | CCAAATAA | -0.0109

Row | Sequence | PBM E-score
126 | GTATCTTA | 0.146
127 | ATGGTATG | 0.00124
128 | AAATCAAG | -0.0986
129 | ACATGACA | 0.206
130 | ACCTAACC | -0.0255
131 | CCAATCTC | 0.0436
132 | AGGGGGAC | -0.0147
133 | ACCGCTTC | -0.129
134 | CCAGGTGA | 0.167
135 | CTTCGTTC | -0.109
136 | CGAGACCC | 0.135
137 | CGTGTTCC | 0.105
138 | GCGTCTCC | -0.0648
139 | GAGACGAA | 0.026
140 | ACCCAACC | 0.135
141 | TCGGCAGA | 0.0483
142 | AAGAACTT | -0.235
143 | AGGTGCCA | 0.023
144 | CTTGATGC | -0.0279
145 | AGATGGAG | 0.0425
146 | ATAATGAT | 0.265
147 | GAAAAAAC | -0.236
148 | CTTTCTCA | -0.189
149 | ATACGGTA | 0.116
150 | ATACCACA | 0.129

Row | Sequence | PBM E-score
151 | GCGGTAGC | 0.0852
152 | GAGTAGGC | 0.00436
153 | CACCTGGC | 0.16
154 | TAAGTGGA | 0.0179
155 | AGTCGCTG | 0.216
156 | ATTCAACC | 0.124
157 | ACAGTAAG | 0.0473
158 | ATCTCCAA | 0.0198
159 | CCGGAAGC | -0.0127
160 | CGGTCTCA | -0.14
161 | GTCCCTCA | -0.0158
162 | AGTTAAAT | -0.159
163 | GTCAAGCA | -0.293
164 | ATCATCAA | 0.136
165 | ATTCTCTC | 0.125
166 | TCGATGAA | -0.0563
167 | TAACTGCA | 0.0163
168 | CTACAATA | 0.183
169 | CGCTCGTA | 0.207
170 | AAGTGAGA | -0.0753
171 | GCTACAAC | -0.0177
172 | TAGCGGGA | -0.153
173 | TAGGGGGA | -0.225
174 | AACTGGTA | 0.0402
175 | TTTCAAAA | -0.305

Row | Sequence | PBM E-score
176 | TCAGCAGA | 0.0746
177 | AGTACACT | 0.0149
178 | GTTCCGAA | 0.131
179 | AACGAGGT | 0.0193
180 | GTGTTTTA | 0.0633
181 | CCTCCGGA | 0.00729
182 | CCGAGCAG | 0.044
183 | AACACCAG | 0.0237
184 | ATTAACCA | 0.189
185 | GGGCATGA | -0.00514
186 | ACGAGGCT | 0.132
187 | CTAATGGA | -0.0784
188 | CTATATTC | -0.109
189 | CCCCGATC | -0.0087
190 | CACCGCCG | 0.183
191 | CAATATGA | 0.155
192 | GCTAAGAC | 0.036
193 | CTGTATCC | 0.119
194 | CAAGCTCG | 0.0842
195 | CCGTTGGC | -0.045
196 | ATAAACGC | -0.197
197 | ATACCCTA | 0.158
198 | AATCTCTA | 0.0403
199 | CGTTGCAA | -0.0437
200 | GCAGGGGA | -0.0781

Row | Sequence | PBM E-score
201 | AGCCTGGC | 0.022
202 | CGGAACGC | -0.0324
203 | GTAGCCCA | 0.0388
204 | AGTAGACC | 0.031
205 | CACCCCTA | 0.0866
206 | CTGCCTGC | -0.125
207 | CGGACCTC | -0.114
208 | GCTATAGA | -0.216
209 | CCGGAGTC | 0.421
210 | AGTTTAAC | -0.24
211 | GATGCGGC | -0.0278
212 | CGAGACTA | 0.202
213 | CGCTTGGC | -0.0376
214 | GCCTTTGA | -0.0374
215 | GTAGTTAA | 0.0877
216 | ACTTAGGA | -0.198
217 | AGAGCTGG | 0.0564
218 | GGGGCCAA | -0.0289
219 | GACTGTAA | -0.0713
